In the supplement of paper PMC4967469:

Legend:
Assay in all cases: Viability of human cancer cell lines after 72 h of drug (GDSC screen)
AG-014699 = compound: CNCc1ccc(-c2[nH]c3cc(F)cc4c3c2CCNC4=O)cc1 [AG-014699]; settings: top dose 5 µM; top dose inferred
Procedure: (§1)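 Human cancer cell lines in 384-well plates, medium with 10% serum, drug for 72 h over a 256-fold dose range (nine 2-fold or five 4-fold steps up to the top dose). Adherent lines were fixed and stained with the nucleic acid dye Syto60, suspension lines read with resazurin; signal relative to control wells, capped at 0 and 100%. One two-parameter sigmoid per drug and line, fitted in a mixed model over all curves with the slope shared within a line.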

EHT 1864 = compound: O=c1cc(CN2CCOCC2)occ1OCCCCCSc1ccnc2cc(C(F)(F)F)ccc12 [EHT 1864]; settings: top dose 10 µM; top dose inferred
Procedure: as §1

XL-184 = compound: COc1cc2nccc(Oc3ccc(NC(=O)C4(C(=O)Nc5ccc(F)cc5)CC4)cc3)c2cc1OC [XL-184]; settings: top dose 5.12 µM; top dose inferred
Procedure: as §1

QL-XI-92 = compound: C=CC(=O)Nc1cc(NC(=O)c2ccc(C)c(NC(=O)c3ccno3)c2)cc(C(F)(F)F)c1 [QL-XI-92]; settings: top dose 10.24 µM; top dose inferred
Procedure: as §1

NU-7441 = compound: O=c1cc(N2CCOCC2)oc2c(-c3cccc4c3sc3ccccc34)cccc12 [NU-7441]; settings: top dose 2 µM; top dose inferred
Procedure: as §1

Phenformin = compound: N=C(N)NC(=N)NCCc1ccccc1 [Phenformin]; settings: top dose 4000 µM; top dose inferred
Procedure: as §1

WHI-P97 = compound: COc1cc2ncnc(Nc3cc(Br)c(O)c(Br)c3)c2cc1OC [WHI-P97]; settings: top dose 10.24 µM; top dose inferred
Procedure: as §1

Vinorelbine = compound: CCC1=C[C@@H]2CN(C1)Cc1c([nH]c3ccccc13)[C@@](C(=O)OC)(c1cc3c(cc1OC)N(C)[C@H]1[C@@](O)(C(=O)OC)[C@H](OC(C)=O)[C@]4(CC)C=CCN5CC[C@]31[C@@H]54)C2 [Vinorelbine]; settings: top dose 0.064 µM; top dose inferred
Procedure: as §1

Row | Cell Line | AUC (AG-014699) | IC50 (AG-014699) [µM] | AUC (EHT 1864) | IC50 (EHT 1864) [µM] | AUC (XL-184) | IC50 (XL-184) [µM] | AUC (QL-XI-92) | IC50 (QL-XI-92) [µM] | AUC (NU-7441) | IC50 (NU-7441) [µM] | AUC (Phenformin) | IC50 (Phenformin) [µM] | AUC (WHI-P97) | IC50 (WHI-P97) [µM] | AUC (Vinorelbine) | IC50 (Vinorelbine) [µM]
1 | NCI-H522 (lung adenocarcinoma, adherent) | 0.97 | > 5 | 0.91 | > 10 | 0.972 | > 5.12 | 0.965 | > 10.2 | 0.954 | > 2 | 0.298 | 60 | 0.948 | > 10.2 |  | 
2 | NCI-H661 (large cell lung carcinoma, adherent) | 0.891 | > 5 | 0.781 | 5.08 | 0.902 | > 5.12 | 0.943 | > 10.2 | 0.901 | > 2 | 0.357 | 92.4 | 0.98 | > 10.2 |  | 
3 | NCI-H838 (lung adenocarcinoma, adherent) |  |  | 0.925 | > 10 | 0.949 | > 5.12 | 0.985 | > 10.2 | 0.865 | 1.88 | 0.749 | 1340 | 0.981 | > 10.2 |  | 
4 | NCI-H1703 (lung adenocarcinoma, adherent) | 0.981 | > 5 | 0.952 | > 10 | 0.85 | > 5.12 | 0.684 | 2.36 | 0.982 | > 2 | 0.703 | 1070 | 0.973 | > 10.2 |  | 
5 | NCI-H1993 (lung adenocarcinoma, adherent) | 0.906 | > 5 | 0.912 | > 10 |  |  | 0.983 | > 10.2 | 0.969 | > 2 | 0.792 | 2490 | 0.862 | > 10.2 |  | 
6 | NCI-H2066 (small cell lung carcinoma, adherent) | 0.98 | > 5 | 0.949 | > 10 |  |  |  |  | 0.98 | > 2 |  |  |  |  |  | 
7 | NCI-H2170 (lung squamous cell carcinoma, adherent) | 0.972 | > 5 | 0.98 | > 10 | 0.985 | > 5.12 | 0.986 | > 10.2 |  |  | 0.85 | 3240 | 0.958 | > 10.2 | 0.667 | 0.0119
8 | OAW-28 (ovary, adherent) | 0.927 | > 5 | 0.935 | > 10 | 0.876 | > 5.12 | 0.983 | > 10.2 |  |  | 0.648 | 721 | 0.945 | > 10.2 | 0.695 | 0.0165
9 | PC-3 (prostate, adherent) |  |  | 0.966 | > 10 |  |  | 0.932 | > 10.2 | 0.899 | > 2 | 0.949 | > 4000 | 0.946 | > 10.2 |  | 
10 | PCI-38 (head and neck, adherent) | 0.949 | > 5 | 0.849 | 7.6 | 0.888 | > 5.12 | 0.984 | > 10.2 |  |  | 0.858 | 3330 | 0.9 | > 10.2 | 0.654 | 0.0107
11 | PL18 (pancreas, adherent) | 0.914 | > 5 | 0.957 | > 10 | 0.961 | > 5.12 | 0.987 | > 10.2 |  |  | 0.852 | 3060 | 0.988 | > 10.2 | 0.75 | 0.0207
12 | RD (rhabdomyosarcoma, adherent) | 0.95 | > 5 | 0.953 | > 10 | 0.949 | > 5.12 | 0.916 | > 10.2 |  |  | 0.934 | > 4000 | 0.967 | > 10.2 | 0.57 | 0.00635
13 | RT-112 (bladder, adherent) | 0.962 | > 5 | 0.98 | > 10 | 0.89 | > 5.12 | 0.983 | > 10.2 |  |  | 0.929 | > 4000 | 0.985 | > 10.2 | 0.478 | 0.00346
14 | SN12C (kidney, adherent) | 0.907 | > 5 | 0.927 | > 10 | 0.981 | > 5.12 | 0.986 | > 10.2 |  |  | 0.967 | > 4000 | 0.984 | > 10.2 | 0.761 | 0.0254
15 | SW156 (kidney, adherent) | 0.943 | > 5 | 0.852 | 9.12 | 0.941 | > 5.12 | 0.959 | > 10.2 |  |  | 0.894 | > 4000 | 0.959 | > 10.2 | 0.931 | > 0.064
16 | SW837 (large intestine, adherent) | 0.977 | > 5 | 0.971 | > 10 | 0.936 | > 5.12 | 0.972 | > 10.2 |  |  | 0.592 | 484 | 0.962 | > 10.2 | 0.951 | > 0.064
17 | SW1088 (glioma, adherent) | 0.98 | > 5 | 0.965 | > 10 | 0.905 | > 5.12 | 0.966 | > 10.2 |  |  | 0.841 | > 4000 | 0.959 | > 10.2 | 0.797 | 0.0411
18 | SW1463 (large intestine, adherent) | 0.978 | > 5 | 0.86 | > 10 | 0.978 | > 5.12 | 0.978 | > 10.2 |  |  | 0.603 | 588 | 0.973 | > 10.2 | 0.9 | > 0.064
19 | T-24 (bladder, adherent) | 0.962 | > 5 | 0.904 | > 10 | 0.962 | > 5.12 | 0.967 | > 10.2 |  |  | 0.985 | > 4000 | 0.957 | > 10.2 | 0.926 | > 0.064

IC50 is the fitted dose that halves viability relative to control wells, and lower means more sensitive; a fit beyond the top or the lowest dose is shown as a bound at that dose. For AUC the same curve is integrated over the 256-fold range of doses and scaled to a fraction: 1 means no effect, lower means more sensitive. The top dose, if marked as inferred, comes from the curve model; the source does not state it.
